From PMC4336329 (PLoS ONE, 2015)
About 2,200 (0.71%) of roughly 310,000 compounds showed an effect of 50% or more. Effects have a minus sign here. Some of the results follow.

target: human ether-à-go-go-related gene (hERG) potassium channel (human, UniProt Q12809); test: primary screen, population patch clamp on CHO cells stably expressing hERG
Sequence (Q12809 whole entry, looked up): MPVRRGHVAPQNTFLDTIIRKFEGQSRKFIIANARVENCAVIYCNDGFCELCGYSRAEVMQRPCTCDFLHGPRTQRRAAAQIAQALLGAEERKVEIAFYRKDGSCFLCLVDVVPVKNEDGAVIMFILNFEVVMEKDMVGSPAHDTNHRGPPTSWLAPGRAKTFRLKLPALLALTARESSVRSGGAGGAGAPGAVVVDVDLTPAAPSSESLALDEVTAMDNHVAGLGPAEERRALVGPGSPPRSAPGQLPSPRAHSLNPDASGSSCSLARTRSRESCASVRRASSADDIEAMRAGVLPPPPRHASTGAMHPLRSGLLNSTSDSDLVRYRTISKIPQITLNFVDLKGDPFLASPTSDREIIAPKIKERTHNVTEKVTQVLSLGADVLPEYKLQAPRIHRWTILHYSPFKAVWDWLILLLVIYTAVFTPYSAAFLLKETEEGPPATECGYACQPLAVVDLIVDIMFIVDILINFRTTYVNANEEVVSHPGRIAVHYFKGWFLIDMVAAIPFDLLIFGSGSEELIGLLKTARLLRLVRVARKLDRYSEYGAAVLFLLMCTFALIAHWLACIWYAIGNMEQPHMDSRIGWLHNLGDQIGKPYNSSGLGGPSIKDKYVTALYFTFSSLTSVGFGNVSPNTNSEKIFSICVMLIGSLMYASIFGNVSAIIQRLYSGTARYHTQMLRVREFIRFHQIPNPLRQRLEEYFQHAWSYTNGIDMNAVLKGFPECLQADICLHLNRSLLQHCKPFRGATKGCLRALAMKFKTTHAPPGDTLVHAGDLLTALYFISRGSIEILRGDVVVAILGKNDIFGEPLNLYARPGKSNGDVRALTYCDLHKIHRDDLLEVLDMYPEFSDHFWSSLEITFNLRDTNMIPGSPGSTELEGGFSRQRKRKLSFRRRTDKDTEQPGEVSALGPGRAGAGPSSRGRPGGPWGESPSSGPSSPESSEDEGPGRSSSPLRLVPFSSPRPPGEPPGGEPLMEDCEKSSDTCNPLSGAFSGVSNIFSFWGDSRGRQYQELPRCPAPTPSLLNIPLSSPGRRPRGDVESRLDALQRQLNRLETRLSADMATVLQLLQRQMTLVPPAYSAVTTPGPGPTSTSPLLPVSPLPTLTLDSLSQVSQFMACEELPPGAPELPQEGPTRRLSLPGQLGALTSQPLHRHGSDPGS

Row | Compound | hERG current change (%, negative = inhibition) at 1uM [%]
1 | Cc1[nH]nc2c1C(c1ccccn1)N(c1ccc(Br)cc1)C2=O (stereo not shown) | -7.96
2 | CCOc1ccc(-c2nc3n(c(=O)c2C#N)CCS3)cc1 | 19.2
3 | COc1ccc(C(=O)NC(=S)NC(C)C)cc1Br | 13
4 | NC(=O)C1CCN(CC(O)CSc2ccc(F)cc2)CC1 (stereo not shown) | 16.1
5 | C#CCOCCOCCOCCNc1nc(N2CCN(C(=O)[C@H]([C@@H](C)CC)n3cc([C@@H](N)CC(C)C)nn3)CC2)nc(N2CCN(C(=O)[C@H](Cc3ccc(O)cc3)n3cc([C@@H](N)C(C)CC)nn3)CC2)n1.Cl (stereo partly shown) | 2.59
6 | O=C(OCc1ccc(Br)cc1)c1ccncc1 | 9.81
7 | O=C(O)c1cccc(NC(=S)N/N=C/c2c[nH]c3ccccc23)c1 | 13.5
8 | CS(=O)(=O)NCCCCCCNS(C)(=O)=O | 14.7
9 | COc1ccc(OCC(N)=O)cc1 | 9.82
10 | COC(=O)CCC(=O)Nc1sc(C)c(C)c1C(N)=O | 17.7
11 | CCCCNC(=O)OC(C)CNC(=O)OC (stereo not shown) | 2.34
12 | O=C(NCC1CCCO1)c1ccc(F)c2ccccc12 (stereo not shown) | 14.6
13 | CCN1C(=O)C(Cc2nc3ccccc3c(=O)n2C)c2ccccc21 (stereo not shown) | 3.46
14 | COc1ccc(OCC(=O)Nc2ccccc2N2CCCCC2)cc1 | 12.2
15 | Br.Cc1ccc2nc(-c3ccccc3)cn2c1 | 15.4
16 | CC(C)c1ccc(NC(=O)COC(=O)c2ccc(CN3CCCC3=O)cc2)cc1 | 7.5
17 | Cc1oc(-c2ccccc2Cl)nc1CN1CCCC1c1ccc(F)cc1 (stereo not shown) | -6.07
18 | O=C(NC1CCCN(Cc2ccc(Cl)cc2)C1)c1ccccc1C(F)(F)F (stereo not shown) | 7.83
19 | Cc1nc([N+](=O)[O-])c(N2CCN(Cc3ccccc3)CC2)n1Cc1ccccc1 | -23.3
20 | CN1CCC2(CC1)N=C(c1ccc(F)cc1)C(=S)N2C(=O)c1ccc(C(C)(C)C)cc1 | 7.39
21 | Cc1ccc(-n2c(SCC(=O)NCCC3=CCCCC3)nc3n[nH]c(C)c3c2=N)cc1Cl | -7.1
22 | CCN(CC(=O)NC1CCS(=O)(=O)C1)C(=O)/C=C/c1cccs1 (stereo not shown) | 24.8
23 | COc1cccc(OCCNC(=O)c2ccc(C)cc2)c1 | 9

Row | Compound | hERG current change (%, negative = inhibition) at 1uM [%]
24 | C/C(CCc1oc2ccc(Br)cc2c1-c1ccc(C)o1)=N/O | 7
25 | CCC(C)[C@H]1CNCCN1CCc1cccc2ccccc12 (stereo partly shown) | 12.6
26 | CCCn1nnnc1SCC(=O)N1C(C)CCCC1C (stereo not shown) | 19.3
27 | O=C(c1ccc2c(c1)N(Cc1ccccc1)CCS2)N1CCC2(CC1)OCCO2 | 0.257
28 | COc1ccc(CC2(C)OC(c3ccc(C)cc3)=NN2C(C)=O)cc1 (stereo not shown) | 4.85
29 | Cc1cc(C)nc(/N=C(\N)Nc2ccc(CC(=O)OC(C)C)cc2)n1 | -18.7
30 | COC(=O)CSc1ncc(S(=O)(=O)c2ccccc2)c(=O)[nH]1 | 16.7
31 | CC(OC(=O)CCCN=C1NS(=O)(=O)c2ccccc21)C(=O)c1ccccc1 (stereo not shown) | 2.12
32 | Cc1ccc(C)c(N2CCN(c3nnnn3-c3ccccc3)CC2)c1 | 13.4
33 | O=C(NN=C1CCN(Cc2ccccc2)CC1)c1ccccc1O | 14.4
34 | COc1ccc(C(=O)CC(c2ccccc2)C2C(=O)CCCC2=O)cc1 (stereo not shown) | 13.4
35 | COC(=O)CSc1nnc(CNC(=O)c2ccco2)n1-c1ccc(F)cc1 | -2.52
36 | COc1ccc(C(=O)Nc2ccc(NC(=O)c3cccs3)cn2)cc1 | 11.7
37 | O=C(O)CCC(=O)Nc1ccc(Oc2ncnc3cc(Cl)ccc23)nc1 | 14.5
38 | Cc1ccc(C(=O)Nc2cc(Cl)ccc2-n2cncn2)o1 | -8.27
39 | CCc1cc(C(N)=S)ccn1 | 9.04
40 | CC(C)(C)c1ccc(C(=O)NCc2nnc(SCC(=O)NCc3ccco3)o2)cc1 | 11.1
41 | Cc1c(NC(=O)c2cccnc2Cl)c(=O)n(-c2ccccc2)n1C | 11.3
42 | NC(=O)c1ccccc1NC(=O)/C=C/c1cccc(Cl)c1 | -11.7
43 | CCN(CC)C(=O)c1sc(NC(=O)c2ccc3c(c2)OCO3)c(C(N)=O)c1C | 10.6
44 | CCOc1ccc(N2CC(C(=O)Nc3ccccc3OC)CC2=O)cc1 (stereo not shown) | 7.93
45 | CCCCNC(=O)C1CCC(CNc2nc(=S)[nH]c3ccccc23)CC1 (stereo not shown) | 8.87
46 | Cc1ccc(Cn2nnc3c(=O)[nH]c(C4CCCN(C(=O)Nc5ccc(F)cc5)C4)nc32)cc1 (stereo not shown) | 1.7
